# The whole screen tested about 150,000 compounds, of which about 540 (0.36%) showed an effect of 50% or more. This is one part of the list.
# Tested on: Plasmodium falciparum
# Assay: Primary screen in NF54 nanoGlo assay, in single point, at 2uM, 72h; a lower Z score goes with more inhibition
# Format: functional, Erythrocyte
# Conditions: timepoint 72 hour
Compound,% Inhibition,Z score
CN(CCc1nc(-c2cccc(F)c2)n[nH]1)[C@H]1CCS(=O)(=O)C1,-12%,1.54
Cc1sc2ncnc(N3[C@@H]4CC[C@H]3CNC(=O)C4)c2c1C,-9%,1.5
O=C1CCn2c(nc3ccccc3c2=O)N1,-17%,2.12
Cc1ccc(OCC(=O)N2CCCC2C2CCCCC2=O)cc1C (centres undefined),-6%,1.28
CCNc1ccc(Cl)cc1C(=O)N[C@H]1CCN(C2CCOCC2)C1=O,8%,-1.32
c1ccc(-n2cc(CCNCc3ccc(-c4cc[nH]n4)o3)cn2)cc1,-2%,0.44
CN(CC(=O)N[C@@H]1[C@@H]2CCO[C@@H]2[C@@H]1C1CCCC1)Cc1ccncc1,-6%,0.88
N#Cc1c(N)sc2c1CCN(CCc1cccs1)C2,-3%,0.48
CO[C@H]1C[C@@H](O)C12CCN(C(=O)Nc1ccc(C)cc1)CC2,-14%,1.88
CN(C)c1ccc(NC(=O)C2CCC2)cc1CN(C[C@H]1CCCO1)C(=O)CC(C)(C)C,-14%,1.56
CCn1cc(C(=O)N2CCC(CCOC)(c3noc(C4CC4)n3)CC2)cn1,-13%,1.68
COC(=O)c1ccc([C@@H]2CCCCN2)n1C,-5%,0.5
CC(=O)c1cccc(S(=O)(=O)N2CCN(S(=O)(=O)c3ccc4ccccc4c3)CC2)c1,2%,-0.35
COc1ccc(F)c(CN2CCC[C@@]3(CCN(C(=O)CC(C)C)C3)C2=O)c1,4%,-0.81
Cc1cccc(OCC(=O)N(Cc2ccc(N(C)C)cc2)[C@H]2CCS(=O)(=O)C2)c1,0%,0.03
O=C(c1ccc(Cl)cc1)N(C(=O)c1ccc(Cl)cc1)n1cnnc1,5%,-0.64
CN(Cc1ccc(N(C)C)nc1)Cc1noc2c1CCCC2,-18%,3.34
CC(=O)N1C[C@H]2CCN(C(=O)c3noc(C)c3COc3ccc(C)cc3)C[C@@]2(CO)C1,-17%,1.96
COc1ccc(CNC(=O)Cn2nc(C(=O)N3CCN(C)CC3)cc2C)cc1,0%,0.01
Cc1cnc(CCNC[C@H](C)c2ccccc2)s1,-15%,1.32
Nc1ncccc1CN1CCC[C@H](c2nnc3ccccn23)C1,17%,-2.24
COCCN(CC(F)F)C(=O)NCc1ccoc1C,-4%,0.59
CCc1cc(N[C@H]2CCN(CC(=O)N(C)C)C[C@@H]2O)nc(N(C)C)n1,-8%,1.53
Cc1nc(CN2CCN(Cc3c[nH]nc3-c3ccc(F)cc3)CCC2=O)no1,-12%,2.26
COCc1ccc(CN2CCC(CCC(=O)NCc3cccc(Cl)c3)CC2)o1,-13%,1.68
Cn1nc(C(=O)N2CC[C@@]3(CCCN(CCCc4ccccc4)C3)C2)ccc1=O,4%,-0.5

Compound,% Inhibition,Z score
NC(=O)c1cc(N2CC(CO)(c3ccccc3)C2)ccn1,16%,-1.98
Cc1csc(CCNc2ncnc(C)c2C)n1,-8%,1.21
O=C(c1cc2n(n1)CCCO2)N1CCC(Cc2ccccc2)CC1,-1%,0.11
Cc1cc(NC(=O)C[C@H]2COc3ccccc3NC2=O)ccc1Br,-1%,0.1
Cc1ccc(C(=O)N2CCc3[nH]nc(C(=O)N4CCN(C(C)C)CC4)c3C2)cc1C,-11%,1.27
O=C(c1cccnc1)N1C[C@@H]2OCC(=O)N(CC3CC3)[C@@H]2C1,29%,-3.28
COc1ccc(NC(=O)CCc2nnc3ccc(N4CCC5(CC4)OCCO5)nn23)cc1,-13%,1.74
COc1ccc(C(=O)c2nccn2CC(=O)Nc2cnn(C)n2)cc1,0%,0.05
O=C(Cc1ccccc1Br)Nc1ccc(-c2onc3c2CCc2ccccc2-3)cc1,-18%,1.59
Cc1n[nH]c(C)c1CN1C[C@@](C)(c2ccccc2)CCC1=O,0%,-0.02
N=C(NS(=O)(=O)c1c(F)cccc1F)c1ncc(C(F)(F)F)cc1Cl,30%,-3.92
COc1ccc(CNC(=O)NCCn2nc(-n3ccc4ccccc43)ccc2=O)cc1OC,0%,-0.05
COc1ccccc1N(CCC(N)=O)C(=O)CN(CC(F)F)C[C@H]1CCC=CO1,-2%,0.21
COc1nc2c(cc1CNC(=O)c1ccc(O)cn1)C(=O)N(C1CCCC1)C2,-12%,2.15
Cc1ccc(Oc2nc(N3CCOCC3)nc3c2CN(S(=O)(=O)c2cccc(Cl)c2)CC3)cc1,8%,-1.2
Cc1c(NC(=O)c2ccc(Cl)cc2)c(-n2cnnc2)nn1C,26%,-3.54
Cn1nccc1-c1nc(-c2ccccc2Cn2cccn2)no1,-9%,0.77
NC(=O)CN1CCC(C(=O)N2CC[C@]34C(=O)N(Cc5cn(nn5)CCCOc5cccc(c5)[C@@H]23)c2ccccc24)CC1,-8%,1
O=C(CC(c1ccccc1)c1ccccc1)N1CCC[C@H](n2cnc3ccccc3c2=O)C1,-7%,1.16
CCc1cccc2c(-c3csc(-c4cccc(C(N)=O)c4)n3)c[nH]c12,7%,-1.14
Cc1c(C(=O)Nc2ccc(F)c(Cl)c2)sc2ncnc(N3CCCC[C@@H]3C)c12,9%,-1.42
Cc1nc2ccccc2cc1NC(=O)CC1CC1,-11%,1.61
O=S(=O)(NCCc1ccccc1Br)[C@H]1CCOC1,-7%,0.67
CCC(CC)C(O)CNC(=O)NC(C)c1cn(C)nc1C (centres undefined),-8%,1.58
Cc1nonc1CNC1CCN(c2ccc3c(c2)CCC3)CC1,-2%,0.27
CC(C)C(C(=O)N1CCC2(C1)NC(=O)NC2=O)c1ccccc1 (centres undefined),-7%,1.53

# From ChEMBL document CHEMBL4888484, “Replenishing the malaria drug discovery pipeline: Screening and hit evaluation of the MMV Hit Generation Library 1 (HGL1) against asexual blood stage Plasmodium falciparum ,using a nano luciferase reporter read-out” (2022)
